# From the supplement of paper PMC4604168 (melanoma cell lines)
# The other results are listed elsewhere or left out. Repeats are few or missing, and single values can be far off.
# Tested on: MEL-HO
# Test: cell count relative to DMSO control; melanoma cells; higher = more viable cells
# Conditions: library dose: standard library concentration; 72 h
# 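Further: cells treated in 1,536-well plates, then fixed and DAPI-stained, with nuclei counted from automated high-throughput microscope images.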
row,SMILES,cell count
1,"NC(=O)c1ccc(N(C(N)=O)c2c(F)cccc2F)nc1-c1ccc(F)cc1F + O=S(=O)(c1ccccc1)N(CC(F)(F)F)c1ccc(C(O)(C(F)(F)F)C(F)(F)F)cc1 [T0901317] (first compound 2 µM, partner dose 7 µM)",99.3%
2,"CCCCCCCCc1ccc(CCC(N)(CO)CO)cc1 [fingolimod] + Cc1cc([N+](=O)[O-])ccc1NS(=O)(=O)c1cc(Cl)ccc1Cl [FH535] (first compound 10 µM, partner dose 5 µM)",26.2%
3,"CCCCCCCCc1ccc(CCC(N)(CO)CO)cc1 [fingolimod] + COc1ccc2c(c1)CCC1C2CCC2(C)C(NCCCCCCN3C(=O)C=CC3=O)CCC12 [U73122] (first compound 10 µM, partner dose 2 µM)",11.6%
4,"NC(=O)c1ccc(N(C(N)=O)c2c(F)cccc2F)nc1-c1ccc(F)cc1F + COC(=O)c1sccc1S(=O)(=O)Nc1ccc(Nc2ccccc2)cc1OC [GSK0660] (first compound 2 µM, partner dose 5 µM)",100%
5,"CCCCCCCCc1ccc(CCC(N)(CO)CO)cc1 [fingolimod] + Cc1cc(Nc2cc(N3CCN(C)CC3)nc(/C=C/c3ccccc3)n2)n[nH]1 [ENMD2076] (first compound 10 µM, partner dose 0.2 µM)",10.8%
6,"NC(=O)c1ccc(N(C(N)=O)c2c(F)cccc2F)nc1-c1ccc(F)cc1F + COc1ccc(-c2ccc3c(N4CCOCC4)nc(N4C[C@@H](C)O[C@@H](C)C4)nc3n2)cc1CO [KU0063794] (first compound 2 µM, partner dose 0.1 µM)",78.3%
7,"CCCCCCCCc1ccc(CCC(N)(CO)CO)cc1 [fingolimod] + O=S(=O)(c1ccccc1)N(CC(F)(F)F)c1ccc(C(O)(C(F)(F)F)C(F)(F)F)cc1 [T0901317] (first compound 10 µM, partner dose 7 µM)",17%
8,"CCCCCCCCc1ccc(CCC(N)(CO)CO)cc1 [fingolimod] + c1cc(-c2cnn3cc(-c4ccc(OCCN5CCCCC5)cc4)cnc23)ccn1 [Dorsomorphin] (first compound 10 µM, partner dose 2 µM)",5.73%
9,"CC(C)(C)c1cnc(CSc2cnc(NC(=O)C3CCNCC3)s2)o1 + NCC(=O)Nc1ccc(-n2nc(C(F)(F)F)cc2-c2ccc3c(ccc4ccccc43)c2)cc1 [OSU03012] (first compound 0.05 µM, partner dose 5 µM)",75.9%
10,"NC(=O)c1ccc(N(C(N)=O)c2c(F)cccc2F)nc1-c1ccc(F)cc1F + O=C(Nc1ccccc1)c1cc([N+](=O)[O-])ccc1Cl [GW9662] (first compound 2 µM, partner dose 10 µM)",87.1%
11,"CCCCCCCCc1ccc(CCC(N)(CO)CO)cc1 [fingolimod] + N#Cc1c(O)c2c(-c3ccc(-c4ccccc4O)cc3)csc2[nH]c1=O [A769662] (first compound 10 µM, partner dose 10 µM)",3.28%
12,"CCCCCCCCc1ccc(CCC(N)(CO)CO)cc1 [fingolimod] + CC(C)CCN1c2nc(Nc3cc(F)c(O)c(F)c3)ncc2N(C)C(=O)C1C [BID1870] (first compound 10 µM, partner dose 1 µM)",49.9%
13,"NC(=O)c1ccc(N(C(N)=O)c2c(F)cccc2F)nc1-c1ccc(F)cc1F + N#Cc1c(O)c2c(-c3ccc(-c4ccccc4O)cc3)csc2[nH]c1=O [A769662] (first compound 2 µM, partner dose 10 µM)",95.9%
14,"CCCCCCCCc1ccc(CCC(N)(CO)CO)cc1 [fingolimod] + O=C(O)c1ccc(-c2c[nH]c3ncc(-c4ccccc4)cc23)cc1C1CCCC1 [GSK650394] (first compound 10 µM, partner dose 0.8 µM)",1.65%
15,"CCCCCCCCc1ccc(CCC(N)(CO)CO)cc1 [fingolimod] + CCN(CC)CCCCNc1ncc2cc(-c3cc(OC)cc(OC)c3)c(NC(=O)NC(C)(C)C)nc2n1 [PD173074] (first compound 10 µM, partner dose 0.5 µM)",32.3%
16,"NC(=O)c1ccc(N(C(N)=O)c2c(F)cccc2F)nc1-c1ccc(F)cc1F + CCCCCCCCCCCC1=C(O)C(=O)C=C(O)C1=O [Embelin] (first compound 2 µM, partner dose 6 µM)",80%
17,"CCCCCCCCc1ccc(CCC(N)(CO)CO)cc1 [fingolimod] + O=C(Nc1ccccc1)c1cc([N+](=O)[O-])ccc1Cl [GW9662] (first compound 10 µM, partner dose 10 µM)",37.9%
18,"NC(=O)c1ccc(N(C(N)=O)c2c(F)cccc2F)nc1-c1ccc(F)cc1F + Cn1cc(/C=C2\C(=O)Nc3cccnc32)c2ccccc21 [GW441756] (first compound 2 µM, partner dose 2 µM)",78.5%
